In the supplement of paper PMC11417369:
± gives the standard deviation of the averaged measurements. The list shows a part of the results.

Test system: PfAP2-G AP2 domain (GST-tagged)
Test: gcPBM binding intensity (ln(normalized median fluorescence intensity)); higher = stronger DNA binding
Procedure, shortened: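 Binding intensity values are the highest Masliner-normalised natural-log median intensity among replicate spots of either probe orientation. The binding step lasted 1 h in 1× PBS with 1% milk, 0.2 mg/ml BSA, 0.5% salmon testes DNA and 0.03% Triton X-100, using GST-tagged P. falciparum DNA-binding domains expressed in E. coli on an Agilent 4 × 180k array of primer-extended double-stranded 36-bp intergenic genomic probes plus negative controls. Alexa488 anti-GST antibody and a 488 nm scan detected bound protein.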

Sequence	gcPBM binding intensity (ln)
TAAAACACTCATGGCACACATAAAACATTTTTATGA [CACACA_site3574]	10.2 ± 0.31
TATATATAATATATATGTACATAATATATTTTATAT [XGTACX_site2909]	11.2 ± 0.73
ATATATTTTTTTTTTTGTACGTATATTTATATAATT [XGTACX_site8719]	11.4 ± 0.69
GAAAGAAAGAAAGAAAGTACATATAAAAATATACAT [XGTACX_site7299]	11.2 ± 0.88
TAAAGATATAAATGCACACGTATTAAAAAAAAAATA [CACACA_site952]	10.29 ± 0.057
TTATCATTACATGAGTGTACATTATTATATTTTTTT [XGTACX_site7845]	11 ± 0.5
TAATATGAATATATATGTACATACAATTTGTTATAT [XGTACX_site5815]	11.2 ± 0.51
ATTAAATGTATGACTTGTACATAAAATAAAAAAAAA [XGTACX_site6555]	10.9 ± 0.54
ATGATAGTAATTAATAGTACTTTTTTTGATACAAAA [XGTACX_site4288]	11.3 ± 0.82
TCGTGTTTTAAAAAAATGAAGAAAAGTAAAAAAAAA [XGTACX_negctrl_site23]	9.97 ± 0.18
TGAATCTATATACAGGTGCGTAAAAAATAACTTATA	10.2 ± 0.34
ATTAGTGACATTATTACACACAAAAGAAAACAGAAA [CACACA_site3984]	10.23 ± 0.071
AAAAAAAAGGAAAAGGGTACAAAACCATACTTACAT [XGTACX_site4783]	11 ± 0.67
CAAGAATTAAAATAAAGTACAAAAGTAACAACTTTT [XGTACX_site1474]	11.2 ± 0.64
ATCTCTACAAAGTGCACACACGTAAAAACATATATA [CACACA_site6046]	10.6 ± 0.52
ATTTTCCTTTAATTATGTACTTATGTAATAATAATG [XGTACX_site2612]	11.3 ± 0.91
TGTATGATTATGTTGTGTACGTAAAATATGAAAAAT [XGTACX_site1720]	11.5 ± 0.89
GTATCATAAAAGTATACACACATACATACATATGTA [CACACA_site5456]	10.3 ± 0.19
GCACACATATAATTAAACATATATTTGTATTATTTT [GTGCAC_negctrl_site327]	9.61 ± 0.27
AATATTTATGGGTGCACACAAACATACATATATATA [CACACA_site3395]	10.7 ± 0.5
ATGTTGAAAGGAAAAAATAATAAAATCGATATATTA [CACACA_negctrl_site549]	9.66 ± 0.15
AAAAAAAAGAATAGAGCATGCAAAATATATGAAATA [TGCATGCA_site933]	9.57 ± 0.34
CCTTACTTCTTATAAAGTACCCAATGATATACATTA [XGTACX_site1554]	11 ± 0.64

Sequence	gcPBM binding intensity (ln)
TATCCTAATGCTACCACACACACAAAAACAAATAAT [CACACA_site2609]	10.5 ± 0.45
TTTTAATGTATATTTTGTACGTATTATTAATATTCG [XGTACX_site8453]	11.3 ± 0.81
TTTTTAATTTTGTGGGTGCTTTCGTGTTATTATATA	10.29 ± 0.085
TTTTAAATTGGAGTGGGCAGATTGATATTATTCTTC [GTGCAC_negctrl_site191]	10.2 ± 0.14
AAAAATAAAATATATACACACATATATATATATATA [CACACA_site2943]	10 ± 0.49
ACATATATATATATGTGTACATATTTATACAACAAT [XGTACX_site6660]	11.6 ± 0.78
TACATAAATTAAAACACACACACACTAGAAAAAAAA [CACACA_site5278]	10.2 ± 0.28
TTTTACTAAATATATACACACATTATACAGATATAT [CACACA_site5765]	10.2 ± 0.27
AGGAAATTTGTTATTGCACACAAATTTTTCTTTTTT [CACACA_site8732]	9.87 ± 0.071
AATGTCAGTATGCGAGGTACACGTATAAAAATTACA [XGTACX_site4109]	11.3 ± 0.72
TATTATAATAAACCTATACACACATAAATAAATAAA [GTGCAC_negctrl_site627]	10.01 ± 0.014
TAAAAAATAAAAATTGCACACTAAAAAATTACGCAC [CACACA_site9129]	9.92 ± 0.071
TATATATATATACCAACACACATACATATATATATA [CACACA_site8530]	10.3 ± 0.77
ACATATATTGTACATACACACCTATATAAATATCCT [CACACA_site7503]	11.3 ± 0.73
TATGTATGTATGTATGCATGTGTAACACCTAAATAT [TGCATGCA_site361]	10.3 ± 0.2
CCATATTTCATTAATGAACACACAAAGAGGTATATA [CACACA_site8431]	10.24 ± 0.092
AAGTATAAATTAAAATGTACTTATAAAAAAAAAGAA [XGTACX_site7028]	11.2 ± 0.72
TGTCACATAATTTATGCACACAATGATTATGCTTAA [CACACA_site2358]	9.975 ± 0.092
ATAAGATAGGCATATACACACATTTATTTACAGATA [CACACA_site5754]	9.915 ± 0.064
TATATATCCTCTGAATGTACTTGTTTAATAATGTAG [XGTACX_site4332]	11.2 ± 0.81
TGTGTAATATTCTGTTGTACATAACTCATAAATAAA [XGTACX_site5308]	11.2 ± 0.83
ATAATATAATATATATGTACACATCCTTTTTGTGTA [XGTACX_site2879]	11.4 ± 0.76
TAAAAGTAAAAAGGTAGTACCTAAATAATATATATA [XGTACX_site8399]	11.6 ± 0.98

Sequence	gcPBM binding intensity (ln)
AATAAATTTAGACACACACACACATATAAATAAATA [CACACA_site6531]	10.1 ± 0.13
TATACGTGAATGACAGTGCATTTCAAAAGTATAAAA [GTGCAC_site9887]	10.035 ± 0.007
GAATAAAAAATTGGCACACATAAATATATGGATATA [CACACA_site3047]	10.3 ± 0.26
TTCAACATATTAAAAAGTACAGAATATAACATTATA [XGTACX_site1361]	11.3 ± 0.81
ATTATTTATTTATTTTTTTTTTTTTTCTCTTTTCCT [GTGCAC_negctrl_site656]	9.5 ± 0.071
ATATCATAAATTTATGCATGTTCTTTCTTCAACTCT [TGCATGCA_site992]	9.76 ± 0.23
TTTGGGTATACACATACATGCATGTCCTTATATATA [TGCATGCA_site84]	10.7 ± 0.39
ATATTTATATAGATGTGTACATAAATATAATAACAT [XGTACX_site1681]	11.4 ± 1
ATATATATATATGTTTATTTATTTGAACGATTGTGG [CACACA_negctrl_site828]	9.95 ± 0.37
GACTCTTAAAAAATTTGTACCCACATAAATAATATA [XGTACX_site4313]	11.1 ± 0.8
AGTAGGCATATTGGTTGTACAAAAAAATTATGCACC [XGTACX_site8925]	11.2 ± 0.66
TTTTTTTTTTCTCTCGCACACATTTTTTAAAATGAG [CACACA_site2607]	10.2 ± 0.21
TATAAAAAATTAAAATTTTTCTTATTTTTTTTAGAT [TGCATGCA_negctrl_site125]	9.46 ± 0.13
ACCACCAGGAACAAAGCACATTAGGAAAAATAAAAC [XGTACX_negctrl_site228]	10 ± 0.2
TAGGAATTTAATAAATGTACATATACATAATATATA [XGTACX_site3672]	10.9 ± 0.49
TTGTATAGTCTGATATGTACATATATATATATATAA [XGTACX_site4307]	11 ± 0.67
TTGAATAAATTGGAATAAATATAATAAAATAAGGAA [XGTACX_negctrl_site302]	9.765 ± 0.049
CATACATATATTATTGCACACATATAAAATACCCCC [CACACA_site9292]	11.2 ± 0.58
TACCAATAAATGAAGGTGCGTGCTTGCCTTTGCTAT	10.1 ± 0.13
AAAATACCCATTTTAGTACACACTTAAAAAATTATT [CACACA_site8966]	11.3 ± 0.85
TGGATACACAAAAATTAAAAAAATAAACAAACAAAT [GTGCAC_negctrl_site105]	10.2 ± 0.13
TCCTTACATTTTAAAACACACAAAAATTAATTGTTA [CACACA_site2313]	9.94 ± 0.17
AAAAAATAGTGGTATGCATGTCCCTTGTATTTTCTT [TGCATGCA_site587]	10.2 ± 0.11

Sequence	gcPBM binding intensity (ln)
TACTTTTATATGAATACACACAGGAATATAAATATG [CACACA_site7647]	10.3 ± 0.28
GTTTGTTTGTTTGTTCGTACATATATAAAATAAAAA [XGTACX_site4731]	11.1 ± 0.8
TATAAATATTTTATTGTACACACTTTTTATGAATGA [CACACA_site3136]	11.5 ± 0.84
AGACCTATGATATATACACACATATATTTATTTATA [CACACA_site6630]	9.86 ± 0.014
TATATAACTAAAATAACACACATATATAAAAATATA [CACACA_site7416]	9.815 ± 0.049
ATTATAACACTTATTTCATTTGTATGCCCTTTAAAA [CACACA_negctrl_site955]	10.18 ± 0.049
GTAGTTATATTAAGGGTGCTTAATTAGATTAAACAA	10.1 ± 0.28
AGAATAAATAAATATTGTACATATAAAATATATATA [XGTACX_site896]	11 ± 0.79
TTCAAATTTCCACATACACACCTTGTAGATATATAT [CACACA_site7984]	10.055 ± 0.007
AAAAACTTAATATTGACACACATTTTTAAGAATAAT [CACACA_site4291]	10.07 ± 0.092
ATTGAACACATCTATGCATGCACGGAAAAAAGTACA [TGCATGCA_site401]	11.3 ± 0.81
TATATATTTTTTAATTGTACACTTCAAAAACAAAAA [XGTACX_site5595]	11.3 ± 0.79
ATAATCAACATTAGGTGTACAAAATATGTATGTTTT [XGTACX_site6696]	11.2 ± 0.67
TATGCAATATATTATATTCTGTAAATATTATATATT [TGCATGCA_negctrl_site67]	9.37 ± 0.13
TTTTTTAAAATATGGACACACATATATATATCTGTA [CACACA_site5535]	10.8 ± 0.51
AGAATTGTTGTTAAAGAATTCTTTTTTATCCTTCCC [CACACA_negctrl_site1820]	9.75 ± 0.11
TTTGTATATATTAATGTACACACATGCGTATGTTCG [CACACA_site9193]	11.2 ± 0.73
AATATAGATATAAAAAGTACATTATATATATATATA [XGTACX_site6899]	11.3 ± 0.78
AATATAAATAATATATGTACATATATATATATATAT [XGTACX_site1021]	11.1 ± 0.61
AAAGTATTCTTTACACGTACATATATATAAATATAA [XGTACX_site7557]	11.4 ± 0.82
